# Test results taken from article PMC6212790.
# The other results are listed elsewhere or left out. At the low end of the ranking, values are background and their order means little.
# Target: T1, GST-Rok (full length) (UniProt O34857)
# T1 sequence: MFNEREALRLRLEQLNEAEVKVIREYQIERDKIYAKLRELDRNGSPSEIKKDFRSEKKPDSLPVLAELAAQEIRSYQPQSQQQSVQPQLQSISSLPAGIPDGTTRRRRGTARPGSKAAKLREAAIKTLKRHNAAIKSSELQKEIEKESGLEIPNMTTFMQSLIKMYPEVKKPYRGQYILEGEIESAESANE
# Assay: protein binding microarray;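 further: rank score from −0.5 (least bound) to 0.5 (best bound)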
# Conditions: Rok is a gene silencer of Bacillus subtilis; high values mean tight binding; most listed sequences are background and not binding sites; double strand, one strand shown
row,Sequence,binding signal [E-score]
1,AGAGGTTG,-0.222
2,CGCCACTC,-0.164
3,GACATGAC,0.184
4,AAAGAATT,0.00672
5,AACCGAGT,-0.00949
6,AACCCAAG,-0.143
7,CAAACGAC,0.0667
8,CTTTAGAA,-0.00385
9,CTATGTAA,0.185
10,GGGGCCAC,-0.401
11,CCATAGTA,0.192
12,AGCTACTA,0.291
13,ACAAGCCC,-0.188
14,GAGACTTA,-0.112
15,AGGAGCGG,-0.204
16,CTCCACAG,-0.207
17,GTATTGCA,0.115
18,ACCGCTTG,-0.07
19,AGATAAAC,0.24
20,CTGAAGTA,0.134
21,CTCACTAA,0.154
22,AGAGGGTC,-0.451

row,Sequence,binding signal [E-score]
1,CCTCGCGC,-0.26
2,GAGGGGCA,-0.257
3,ATCTCGAG,0.114
4,CAGCCGGC,-0.32
5,CACTGCGA,0.0493
6,AACGCATT,0.0537
7,CCTTGACG,-0.29
8,AGATTGCA,0.0509
9,CAGGAAGA,-0.0224
10,AGCCGAGG,-0.176
11,CCAGTCCA,-0.0798
12,AATACGAA,0.148
13,ATACGACC,-0.0737
14,CTAGTCTA,0.229
15,CGCCCTAC,-0.152
16,GCACATCA,0.0756
17,CCGTGAAC,-0.00652
18,ATCAGTAG,0.287
19,TGTGGGAA,-0.1
20,AAGATAGT,0.244
21,CAAACCAC,-0.14
22,GAGCATGC,-0.189

row,Sequence,binding signal [E-score]
1,TACTGGAA,0.16
2,GGACCGCA,-0.21
3,CCACACGG,-0.0759
4,AATCGGCC,-0.0499
5,AAGTACAC,0.25
6,ACACACGG,-0.383
7,AATAATTG,0.266
8,CTTAGTGC,0.0208
9,CGAACCGC,-0.193
10,GAGAAATC,0.118
11,ACATAGGA,0.231
12,AACGTATG,0.113
13,ATGAAGTC,-0.0225
14,CTTGGCAA,0.103
15,GAAGAACC,-0.00102
16,AGGATGGG,-0.144
17,CGGGGTTA,-0.232
18,TCGCTAAA,0.187
19,GTGACATA,0.281
20,GAGTATGA,0.0641
21,GTAGAAAA,0.387
22,TACTTAGA,0.3

row,Sequence,binding signal [E-score]
1,CATCATAC,0.0476
2,CGCACGAC,-0.119
3,AACGCGTA,0.0461
4,AAGTTGAA,-0.0679
5,ACTAAGCA,0.114
6,CGGATCTA,0.157
7,TCAGCCCA,-0.215
8,CAACTACG,0.12
9,ACGAACCC,-0.12
10,AACAACTT,0.174
11,TCCCGGCA,-0.136
12,TACTATAA,0.439
13,ATGGCCAG,-0.144
14,AAGTAGAT,0.374
15,GAGGGACA,-0.267
16,GACCGTTA,-0.0188
17,CATTGGAG,-0.192
18,AATGACCG,-0.0639
19,CAAGGGGC,-0.472
20,AATGTCAC,0.0726
